This series in a line: label from the status in PepcDB records.
On to “ASCDSFNEDLPECRLSVKFKYDYNMEFADAFHAQVDKVELYVFDKNGKYLFKQAEEGSALSTGNYLMEVELPVGQYQFMAWAGARDSYDITSLTPGVSTLTDLKLKLKREASLIINKRMETLWYGEVINVNFDGTVHQTETINLIRDTKIVRFGFQSYTGSWTLDMNDYDYEIIESNGHLGHDNSLLDDDVLSFRPYYMEQKDPATAYVDMNTMRLMEDRKTRLVLTEKASGKRVFDINLIDYLAMTNAEGKNLSTQEYLDRQSNYHIIFFLSESWLAVQIVVNGWVHRIQEENQ”, for which the protein production entry is given as “not failed”.

Regarding “MALSYRVSELQSTIPEHILQSTFVHVISSNWSGLQTESIPEEMKQIVEEQGNKLHWAALLILMVIIPTIGGNTLVILAVSLEKKLQYATNYFLMSLAVADLLVGLFVMPIALLTIMFEAMWPLPLVLCPAWLFLDVLFSTASIMHLCAISVDRYIAIKKPIQANQYNSRATAFIKITVVWLISIGIAIPVPIKGIETDVDNPNNITCVLTKERFGDFMLFGSLAAFFTPLAIMIVTYFLTIHALQKKAYLVKNKPPQRLTWLTVSTVFQRDETPCSSPEKVAMLDGSRKDKALPNSGDETLMRRTSTIGKKSVQTISNEQRASKVLGIVFFLFLLMWCPFFITNITLVLCDSCNQTTLQMLLEIFVWIGYVSSGVNPLVYTLFNKTFRDAFGRYITCNYRATKSVKTLRKRSSKIYFRNPMAENSKFFKKHGIRNGINPAMYQSPMRLRSSTIQSSSIILLDTLLLTENEGDKTEERVSYV”, the protein production result is given as “failed”.

For the sequence “MANASEPGGSGGGEAAALGLKLATLSLLLCVSLAGNVLFALLIVRERSLHRAPYYLLLDLCLADGLRALACLPAVMLAARRAAAAAGAPPGALGCKLLAFLAALFCFHAAFLLLGVGVTRYLAIAHHRFYAERLAGWPCAAMLVCAAWALALAAAFPPVLDGGGDDEDAPCALEQRPDGAPGALGFLLLLAVVVGATHLVYLRLLFFIHDRRKMRPARLVPAVSHDWTFHGPGATGQAAANWTAGFGRGPTPPALVGIRPAGPGRGARRLLVLEEFKTEKRLCKMFYAVTLLFLLLWGPYVVASYLRVLVRPGAVPQAYLTASVWLTFAQAGINPVVCFLFNRELRDCFRAQFPCCQSPRTTQATHPCDLKGIGL”, the protein production result is recorded as “failed”.

In the case of “MGNASNDSQSEDCETRQWLPPGESPAISSVMFSAGVLGNLIALALLARRWRGDVGCSAGRRSSLSLFHVLVTELVFTDLLGTCLISPVVLASYARNQTLVALAPESRACTYFAFAMTFFSLATMLMLFAMALERYLSIGHPYFYQRRVSRSGGLAVLPVIYAVSLLFCSLPLLDYGQYVQYCPGTWCFIRHGRTAYLQLYATLLLLLIVSVLACNFSVILNLIRMHRRSRRSRCGPSLGSGRGGPGARRRGERVSMAEETDHLILLAIMTITFAVCSLPFTIFAYMNETSSRKEKWDLQALRFLSINSIIDPWVFAILRPPVLRLMRSVLCCRISLRTQDATQTSCSTQSDASKQADL”, the protein production entry was “not failed”.

On to “MTEVLWPAVPNGTDAAFLAGPGSSWGNSTVASTAAVSSSFKCALTKTGFQFYYLPAVYILVFIIGFLGNSVAIWMFVFHMKPWSGISVYMFNLALADFLYVLTLPALIFYYFNKTDWIFGDAMCKLQRFIFHVNLYGSILFLTCISAHRYSGVVYPLKSLGRLKKKNAICISVLVWLIVVVAISPILFYSGTGVRKNKTITCYDTTSDEYLRSYFIYSMCTTVAMFCVPLVLILGCYGLIVRALIYKDLDNSPLRRKSIYLVIIVLTVFAVSYIPFHVMKTMNLRARLDFQTPAMCAFNDRVYATYQVTRGLASLNSCVDPILYFLAGDTFRRRLSRATRKASRRSEANLQSKSEDMTLNILPEFKQNGDTSL”, for which the protein production result is on record as “failed”.
